# Results: paper PMC4336329 (PLoS ONE, 2015)
# The whole screen tested about 310,000 compounds, of which about 2,200 (0.71%) showed an effect of 50% or more. Effects have a minus sign here. The list shows a part of the results.
# Target: human ether-à-go-go-related gene (hERG) potassium channel (human, UniProt Q12809)
# Test: primary screen, population patch clamp on CHO cells stably expressing hERG
# Chain of human ether-à-go-go-related gene (hERG) potassium channel (Q12809 whole entry, looked up): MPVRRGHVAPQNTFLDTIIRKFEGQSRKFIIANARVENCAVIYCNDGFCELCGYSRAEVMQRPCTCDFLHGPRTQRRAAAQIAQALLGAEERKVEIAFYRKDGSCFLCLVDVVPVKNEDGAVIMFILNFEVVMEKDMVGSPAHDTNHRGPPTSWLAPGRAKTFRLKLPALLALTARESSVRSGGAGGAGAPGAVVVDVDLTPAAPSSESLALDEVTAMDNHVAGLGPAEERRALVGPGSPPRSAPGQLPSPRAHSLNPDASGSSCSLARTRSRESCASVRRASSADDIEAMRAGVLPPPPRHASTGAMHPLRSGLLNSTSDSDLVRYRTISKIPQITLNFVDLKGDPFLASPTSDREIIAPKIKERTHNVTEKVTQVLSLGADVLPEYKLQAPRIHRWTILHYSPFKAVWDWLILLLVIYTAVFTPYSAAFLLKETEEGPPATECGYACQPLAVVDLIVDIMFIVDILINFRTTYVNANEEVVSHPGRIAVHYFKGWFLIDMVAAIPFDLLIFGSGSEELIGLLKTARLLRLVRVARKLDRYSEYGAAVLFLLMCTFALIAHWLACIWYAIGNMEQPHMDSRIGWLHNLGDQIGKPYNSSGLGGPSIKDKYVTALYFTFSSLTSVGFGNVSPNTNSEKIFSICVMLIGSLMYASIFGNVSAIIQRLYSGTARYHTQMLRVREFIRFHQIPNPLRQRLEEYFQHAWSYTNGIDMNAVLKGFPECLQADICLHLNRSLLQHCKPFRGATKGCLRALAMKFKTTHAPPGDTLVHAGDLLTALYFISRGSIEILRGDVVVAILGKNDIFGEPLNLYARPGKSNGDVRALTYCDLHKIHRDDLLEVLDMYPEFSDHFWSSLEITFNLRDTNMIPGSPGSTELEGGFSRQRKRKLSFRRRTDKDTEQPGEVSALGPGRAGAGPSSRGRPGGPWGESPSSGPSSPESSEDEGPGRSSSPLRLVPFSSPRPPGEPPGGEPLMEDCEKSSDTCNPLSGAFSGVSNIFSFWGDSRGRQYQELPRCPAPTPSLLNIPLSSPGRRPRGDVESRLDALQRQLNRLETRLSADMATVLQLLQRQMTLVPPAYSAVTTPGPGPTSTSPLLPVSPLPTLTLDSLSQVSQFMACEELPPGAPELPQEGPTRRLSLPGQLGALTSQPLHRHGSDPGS
row,Structure (SMILES),"hERG current change (%, negative = inhibition) at 1uM"
1,C#CCOc1nc2c(c(=O)n(C)c(=O)n2C)n1Cc1ccccc1,10.2%
2,O=C(NCc1ccccc1)C1CC(=O)N(C2CCCCC2)C1 (stereo not drawn),12.2%
3,CCn1c(COc2ccccc2C)nnc1SCC(=O)O,12.1%
4,CC1(C)CC(=O)c2sc(NS(=O)(=O)c3cc(Cl)ccc3Cl)nc2C1,18.5%
5,Cc1nc(N=C(N)N)nc2ccccc12,20.5%
6,CCn1cc(CN2CCC(n3nccc3NC(=O)CCc3ccccc3)CC2)cn1,-1.76%
7,Cc1cc(C(=O)Nc2nccs2)c2cc(F)ccc2n1,8.04%
8,ClC1=CCC2CN(CCN3CCCCC3)CC2C1 (stereo not drawn),8.13%
9,Cn1sc(NC(=O)c2ccccc2Cl)nc1=O,1.95%
10,Cc1cc(Br)c(NC(=O)CN(C)CCOc2ccccc2)c(Br)c1,4.73%
11,Cc1cccc(NC(=S)Nc2cccc(C(F)(F)F)c2)n1,9.11%
12,COc1ccc2nc(NC(=O)Cn3cnc4c(=O)n(C)c(=O)n(C)c43)sc2c1,-31.5%
13,COc1ccc(N2CCN(C(=O)c3cccc(NC(=O)c4ccco4)c3)CC2)cc1,-8.07%
14,CC(C)CCn1c(=S)[nH]c2ncccc2c1=O,-0.176%
15,C=C(C)Cn1c(SCC(=O)N/N=C/c2cccc(O)c2)nc2ccccc2c1=O,15.9%
16,Cc1cc2nc(-c3ccc(SCC(=O)N4CCOCC4)nc3)[nH]c2cc1C,12.3%
17,CSc1ccc(N/N=C(/C#N)S(=O)(=O)C(C)(C)C)cc1,16%
18,O=C(COC(=O)c1ccc2ncsc2c1)NCc1cccc(Cl)c1,-9.48%
19,COc1ccc(Br)cc1/C=N/NC(=O)c1ccco1,14%
20,CCN1CCN(S(=O)(=O)c2ccc(Cl)c(C(=O)N(C)CCOc3ccc(Cl)cc3)c2)CC1,0.373%
21,CCOC(=O)c1c(C)[nH]c(C(=O)CSc2ccccc2)c1C,1.9%
22,COc1ccc(-c2c(C)c3ccc(OCC(C)=O)cc3oc2=O)cc1,7.6%
23,CC(=O)c1cccc(NC(=O)N2C3CCC2CC(NC(=O)Nc2ccccc2)C3)c1 (stereo not drawn),5.48%

row,Structure (SMILES),"hERG current change (%, negative = inhibition) at 1uM"
1,O=C(c1cnc2nc3ccccc3n2c1)c1cc(F)ccc1O,-6.8%
2,O=C(NCCSc1ccccc1)c1ccco1,2.33%
3,CN(C)C1=NCCN1CCCC1CCCCC1,3.91%
4,COCCn1c(C)cc(C(=O)CN2C(=O)NC3(CCCCCCC3)C2=O)c1C,-15%
5,CC(=O)c1ccc(N2C(=NC(=O)COc3ccccc3)SC3CS(=O)(=O)CC32)cc1 (stereo not drawn),7.75%
6,CCCN(CCC)S(=O)(=O)c1cccc(C(=O)Nc2ccc3c(c2)OCO3)c1,-6.21%
7,COc1ccc(-n2nc3c(c2NC(=O)C(C)Oc2ccccc2)CS(=O)(=O)C3)cc1 (stereo not drawn),15.9%
8,Cc1oc2ccc(O)cc2c1C(=O)c1ccc([N+](=O)[O-])cc1,10.4%
9,CCN(CC)c1ccc(/C=N/NC(=O)CNC(=O)c2cccs2)cc1,10.1%
10,O=C(COC(=O)C1CC2CCCC(C1)C2=O)Nc1ccccc1 (stereo not drawn),9.57%
11,Cc1c(C(=O)OCC(C)C)[nH]c2c1C(=O)CC(c1ccco1)C2 (stereo not drawn),2.16%
12,COc1ccccc1-n1c(SCC(=O)N2CCCCC2)nnc1-c1ccccc1O,-0.676%
13,CCCS(=O)(=O)N1CCC(C(=O)N2CCC(Cc3ccccc3)CC2)CC1,-16%
14,COc1cc(CNC2CCCC2)cc(Br)c1OCC(=O)Nc1ccccc1C,2.93%
15,O=C(NNc1nc(-c2ccc(F)cc2)cs1)c1ccccc1,10.2%
16,Cc1c(OCC(N)=O)ccc2c(-c3ccccc3)cc(=O)oc12,14.3%
17,O=C(NNC(=O)c1cccnc1)Nc1cccc2ccccc12,11.4%
18,CCCOc1ccc(-c2nnc(-c3ccncc3)o2)cc1,5.63%
19,Cc1cnc(C(=O)Nc2ccc(N3CCOCC3)cc2)cn1,12%
20,CCOCCCNC(=O)CCc1nnc2ccc(N3CCCCC3)nn12,13.5%
21,CNC(=O)NC(=O)COC(=O)c1cccc(S(=O)(=O)N2CC3(C)CC2CC(C)(C)C3)c1 (stereo not drawn),11.2%
22,COc1ccc(NC(C)=O)cc1S(=O)(=O)NC1CCSc2ccccc21 (stereo not drawn),-3.2%
23,COCCNC(=O)CN(c1ccc(C)cc1)S(=O)(=O)c1ccc(SC)cc1,-11.2%

row,Structure (SMILES),"hERG current change (%, negative = inhibition) at 1uM"
1,Cc1ccccc1-n1ncc2c1CC(C)(C)CC2NC(=O)CCC(F)(F)F (stereo not drawn),2.99%
2,COCc1ccc(C(=O)N2CCC(CCC(=O)Nc3cccc(C)c3)CC2)s1,7.89%
3,Cc1noc(C)c1C(=O)NC(C)C12CC3CC(CC(C3)C1)C2 (stereo not drawn),2.85%
4,COC(=O)c1nc(C(=O)OC)c(C(=O)OC)nc1C(=O)OC,10.5%
5,Cl.O=C(NCCN1CCCC1)c1ccc(Cl)cc1Cl,16.6%
6,O=C(O)c1cnc(-c2ccccc2)nc1Sc1cccc(Cl)c1,23.8%
7,COC(=O)C1=C[C@@H](C(=O)OC)[C@@H]2C3=C(C(=O)[C@]2(C)NC(=O)c2ccccc2)[C@H](C)n2c(=O)n(C)c(=O)n2[C@@H]3C1,4.58%
8,O=C(COc1ccc2ccccc2c1Br)NNC(=O)Nc1ccccc1,12.4%
9,CN=c1scc(-c2ccc([N+](=O)[O-])cc2)n1/N=C/c1ccco1,5.91%
10,Cc1cccc(N(O)C(=O)Nc2cccc(Cl)c2)c1,14%
11,COc1cccc(N2C(=O)CC(N3CCc4ccccc4C3)C2=O)c1 (stereo not drawn),13.1%
12,Cc1cc(C)c(S(=O)(=O)c2ccc(Cl)cc2C)c(Cl)n1,17%
13,O=C(NCc1ccccc1Cl)C1CCN(S(=O)(=O)N2CCOCC2)CC1,20.2%
14,CCOCCn1c(N2CCCC2)nc2c1c(=O)[nH]c(=O)n2C,17.3%
15,CC(=O)Nc1ccc(NC(=O)C2CCCN2C(=O)NC2CCCCC2)cc1 (stereo not drawn),12.2%
16,CCCn1c(=O)c(C(=O)NCCc2ccc(OC)c(OC)c2)c(O)c2ccccc21,10.8%
17,Cc1noc(C)c1CSCC(=O)OCC(=O)Nc1sccc1C#N,7.06%
18,CN(C)c1ccc(/C=C/c2nc3ccccc3c(=O)n2CCO)cc1,4.16%
19,O=C(Nc1cccc(S(=O)(=O)N2CCCCC2)c1)Nc1ccc(Cl)cc1Cl,11%
20,O=C(COc1ccccc1Cl)Nc1ccc(N2CCCC2)cc1,5.83%
21,C=CCc1ccc(OCC(O)CN2CCC(Cc3ccccc3)CC2)c(OC)c1.Cl (stereo not drawn),-75%
22,COc1ccc2[nH]c(=O)c(CN(C3CCCCC3)C(c3nnnn3Cc3ccco3)C(C)C)cc2c1 (stereo not drawn),12.3%
23,CCOC(=O)c1c(NC(C)=O)sc2c(O)c(Br)cc(Br)c12,6.01%

row,Structure (SMILES),"hERG current change (%, negative = inhibition) at 1uM"
1,OCCC1CN(CC(c2ccccc2)c2ccccc2)CCN1C1CCCC1 (stereo not drawn),-74.5%
2,CCCS(=O)(=O)N1CCN(CC2CC3C=CC2C3)CC1.O=C(O)C(=O)O (stereo not drawn),8.96%
3,COc1ccc(NC(=O)CC2C(=O)N(C)C(=S)N2Cc2cccs2)cc1 (stereo not drawn),-2.48%
4,CCn1nnnc1SCC(=O)Nc1ccc(OC)cc1,9.53%
5,COc1ccccc1N1CCN(S(=O)(=O)c2ccccc2F)CC1,-7.11%
6,CC1(C)C(=O)Nc2ccccc2N1C(=O)COC(=O)c1cc(S(=O)(=O)N2CCOCC2)ccc1F,14.7%
7,COc1ccc2nc3cc(Cl)ccc3c(Nc3cc(CN4CCCC4)c(O)c(CN4CCCC4)c3)c2n1.O=P(O)(O)O,11.5%
8,O=C(O)C1C2CCC(O2)C1C(=O)Nc1cccc(Br)c1 (stereo not drawn),19.9%
9,COc1ccc(CN2CC(C(=O)NCc3ccc4c(c3)OCO4)CC2=O)cc1 (stereo not drawn),-13.5%
10,CCCCCCCCC(=O)O,15.5%
11,O=C(/C=C/c1ccc([N+](=O)[O-])cc1)N1CCN(S(=O)(=O)c2ccccc2)CC1,-11.8%
12,O=C(Nc1ccccc1)c1ccc(-c2ccc(F)cc2)s1,13.4%
13,O=C(c1ccc(-c2ccccc2)cc1)C1CCCN(Cc2ccncc2)C1 (stereo not drawn),2.06%
14,O=C(Cc1ccccc1)NNS(=O)(=O)c1ccc([N+](=O)[O-])cc1,4.45%
15,Cc1ccc(OCCn2c(C)nc3ccccc32)cc1,13%
16,CCOc1cc(/C=N\NC(=O)OC(C)(C)C)ccc1OC(=O)c1ccco1,13.3%
17,O=C(NC1CCCC1)C(c1ccco1)N(Cc1ccccc1)C(=O)c1csnn1 (stereo not drawn),-2.6%
18,CC(C)Cn1c(SCC(=O)Nc2ncccn2)nc2ccccc21,9.53%
19,Cc1ccc(S(=O)(=O)N2CCOC2CNC(=O)C(=O)NCC(C)C)cc1 (stereo not drawn),6.55%
20,COc1cc(C(=O)NC(=S)Nc2ccc(Cl)c(C(=O)O)c2)cc(OC)c1OC,8.38%
21,COc1cccc(CNC23CC4CC(CC(C4)C2)C3)c1OCc1ccccc1.Cl,3.29%
